# Source: PubChem BioAssay AID360 (National Center for Advancing Translational Sciences (NCATS), 2006)
# Screen size: about 48,000 compounds; about 550 (1.1%) were called active. Inconclusive results, whose numbers are uncertain, are shown with a selection of clear calls. No stated cut-off is given here; in the data, active means potency below about 15 µM; inconclusive means mostly about 16 µM to 33 µM; inactive means weaker than that. Potencies of inconclusive entries are left out as doubtful fits.
# Biological target: Lysosomal acid glucosylceramidase (Homo sapiens) (UniProt P04062)
# Test: Glucocerebrosidase;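 further: the screen sought inhibitors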
# Settings: purified enzyme, resorufin glucoside fluorescence (screen aimed at inhibitors), 20 min
# How it was run: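 Compounds titrated against 0.2 nM normal enzyme, 30 uM resorufin beta-D-glucopyranoside substrate, citrate/phosphate buffer with taurocholate and tween-20, pH 5.9. Reaction ran 20 min at room temperature; fluorescence (Ex 548/Em 600) gave AC50.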
# Potency means the concentration at half of the fitted maximal effect.
# Sequence of UniProt P04062 (P04062 whole entry, looked up): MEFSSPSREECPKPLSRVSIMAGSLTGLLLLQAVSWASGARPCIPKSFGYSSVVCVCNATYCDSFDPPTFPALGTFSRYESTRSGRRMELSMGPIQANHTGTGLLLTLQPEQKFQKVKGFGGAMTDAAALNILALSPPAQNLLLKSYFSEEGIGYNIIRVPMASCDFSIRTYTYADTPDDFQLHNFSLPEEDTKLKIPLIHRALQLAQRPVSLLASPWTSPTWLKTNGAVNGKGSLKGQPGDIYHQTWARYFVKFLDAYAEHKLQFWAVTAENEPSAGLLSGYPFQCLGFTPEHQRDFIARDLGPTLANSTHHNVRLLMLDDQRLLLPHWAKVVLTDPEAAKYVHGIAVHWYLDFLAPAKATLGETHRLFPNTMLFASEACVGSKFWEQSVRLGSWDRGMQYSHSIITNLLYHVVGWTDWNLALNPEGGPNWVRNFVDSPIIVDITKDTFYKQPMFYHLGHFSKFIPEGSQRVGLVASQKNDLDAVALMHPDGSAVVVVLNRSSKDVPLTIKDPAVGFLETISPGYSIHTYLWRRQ
row,SMILES,Potency
1,CN1CCCCc2c1nc1ccccc1c2N (tested in a mixture with another compound),inconclusive [decreasing]
2,COCCN1Cc2cccc(C(=O)Nc3ccc(S(=O)(=O)N4CCCCCC4)cc3)c2C1=O,active: 15.3 µM
3,O=C(Nc1cccnc1)c1ccc(NC(=O)c2ccco2)cc1,inconclusive [decreasing]
4,O=C(CCN1CCN(CCO)CC1)Nc1ccc(OCc2ccccc2)cc1,inconclusive [decreasing]
5,COc1ccc2c(c1)Sc1ccccc1N2CCN(C)C,inconclusive [decreasing]
6,CC(C)(C)N=C1NC(=NC(C)(C)C)c2ccccc21,inconclusive [decreasing]
7,Cn1c(N)c(C(=O)COC(=O)C2(c3ccc(F)cc3)CCCC2)c(=O)n(C)c1=O,inconclusive [decreasing]
8,O=C(CSc1ncccc1-c1nc2ccccc2[nH]1)N1CCN(c2ccccc2F)CC1,inconclusive [decreasing]
9,O=C(CSc1nnc(-c2ccncc2)n1Cc1ccco1)c1ccc(Cl)cc1,inactive: > 76.9 µM
10,COc1ccc(Cn2nnnc2C(C(C)C)N2CCc3ccccc32)cc1 (centres undefined),inconclusive [decreasing]
11,O=C(Nc1ccc(N2CCN(C(=O)c3ccco3)CC2)c(Cl)c1)c1cc2ccccc2o1,inconclusive [decreasing]
12,COc1cccc(C2CC(c3ccccc3Cl)Nc3nc(N)nn32)c1 (centres undefined),inconclusive [decreasing]
13,Oc1ccc(N2CCN(C(c3ccncc3)c3nnnn3C3CCCC3)CC2)cc1 (centres undefined),inconclusive [decreasing]
14,CC1CN(CC(O)COc2ccc(C(=O)c3ccccc3)cc2)CC(C)O1 (centres undefined),inconclusive [decreasing]
15,Cc1ccc(S(=O)(=O)N2CCCCC2)cc1C(=O)c1nccn1C,active: 10.1 µM
16,COC(=O)c1nc2n(n1)C(c1cc(OC)ccc1OC)C(C(=O)OC1CCCCC1)=C(C)N2 (centres undefined),inconclusive [decreasing]
17,CC1(C)CC(=O)C2=C(C1)OC(N)=C(C#N)C2C1CC=CCC1 (centres undefined),inconclusive [decreasing]
18,O=C(Nc1cccc(C(F)(F)F)c1)C1CCCN1S(=O)(=O)c1cccc2cccnc12 (centres undefined),inactive: > 76.9 µM
19,O=C(CC(c1ccccc1)c1ccccc1O)NCCN1CCOCC1 (centres undefined),inconclusive [decreasing]
20,O=C(OCCN1C(=O)c2ccccc2C1=O)c1cc(=O)[nH]c2ccccc12,inactive: > 76.9 µM
21,COc1ccc(S(=O)(=O)N(CCN2CCOCC2)Cc2cc(OC)ccc2OC)cc1,inconclusive [decreasing]
22,CCc1sc(C(=O)NC2CCN(C)CC2)cc1Br,inconclusive [decreasing]
23,CCCC(=O)c1cc2ccccc2oc1=O,inactive: > 76.9 µM
24,O=C(NC1CCCCCC1)c1c(O)c2ccccc2[nH]c1=O,active: 11.4 µM
25,COc1ccc(N(CC(=O)NC2CCCC2)C(=O)Cn2nnc(-c3ccc(C)cc3)n2)cc1,inconclusive [decreasing]

row,SMILES,Potency
1,Clc1ccc(OCCN2CCN(c3ncnc4sccc34)CC2)cc1,inconclusive [decreasing]
2,Cc1ccc(/C=N/c2sc3c(c2C#N)CCC3)s1,active: 11.4 µM
3,Cc1nn(C)c(C)c1NC(=O)CCSc1nc(-c2ccco2)cc(C(F)(F)F)n1,inconclusive [increasing]
4,CCSc1nnc(NC(=O)c2ccc(Br)s2)s1,active: 1.03 µM
5,CCOc1ccc(C(=O)NCCCn2ccnc2)cc1,inconclusive [decreasing]
6,O=C(Nc1ccc2c(c1)OCCO2)c1ccc(NC(=O)C2CCCO2)cc1 (centres undefined),inconclusive [decreasing]
7,O=C(COc1ccccc1Cl)N(Cc1ccco1)C1CCS(=O)(=O)C1 (centres undefined),inactive: > 76.9 µM
8,O=C(Nc1ccc(Cl)c(C(F)(F)F)c1)C1CCCN(S(=O)(=O)c2cnc[nH]2)C1 (centres undefined),inconclusive [decreasing]
9,C=CCN1CCN(C(c2ccccc2)c2nnnn2CCC(C)C)CC1 (centres undefined),inconclusive [decreasing]
10,COc1cccc(/C=N/n2c(C)nc3ccccc32)c1OC,inconclusive [increasing]
11,O=C(NCCCn1ccnc1)NC(C(F)(F)F)C(F)(F)F,inconclusive [decreasing]
12,O=C(Nc1ccc(C(F)(F)F)cc1Cl)c1ccc(Cn2cc(Br)cn2)o1,inactive: > 76.9 µM
13,Cc1ccc(C(=O)Nc2ccccc2C(=O)NC(CC(=O)O)C(=O)O)cc1 (centres undefined),active: 10.4 µM
14,CCC(=O)N1CCN(c2ccc(NC(=O)c3cc4ccccc4o3)cc2Cl)CC1,active: 3.23 µM
15,COC(=O)Nc1nnc(-c2ccncc2)s1,inactive: > 76.9 µM
16,O=C(Nc1cc(C(F)(F)F)ccc1N1CCOCC1)c1n[nH]c(=O)c2ccccc12,inconclusive [increasing]
17,c1ccc(-c2oc3ncnc(NCCCN4CCOCC4)c3c2-c2ccccc2)cc1,inconclusive [decreasing]
18,Oc1[nH]c2ccccc2c1C=Nc1ccc2c(c1)OCCO2,inconclusive [increasing]
19,CCN1CCN(c2ncnc3sc(C(=O)Nc4ccccc4F)c(C)c23)CC1,inconclusive [decreasing]
20,O=S(=O)(c1ccc2oc(-c3ccncc3)nc2c1)c1ccc2oc(-c3ccncc3)nc2c1,inactive: > 76.9 µM
21,Cn1c(C(=O)N2CCCC(C(=O)NCCN3CCOCC3)C2)cc2sccc21 (centres undefined),inconclusive [decreasing]
22,O=C(Nc1nc2ccc(S(=O)(=O)N3CCCCC3)cc2s1)c1ccncc1,inconclusive [decreasing]
23,CCOc1ccc(CCNS(=O)(=O)c2cccc3nsnc23)cc1OCC,inactive: > 76.9 µM
24,O=C(Nc1ccc(-c2cn3ccsc3n2)cc1)C1CCCC1,inconclusive [decreasing]
